Test results from PubChem BioAssay AID2675 (National Center for Advancing Translational Sciences (NCATS), 2010).
The campaign covered roughly 280,000 compounds. About 100 (0.036%) were called active. This list was built around the results that the source calls inconclusive (neither active nor inactive); the mix of calls is not that of the screen. Calls follow the shape of the dose curve; as a rule, active = well fitted inhibition curve with a large enough effect in the signal ratio, with a control signal flat (not every such curve was filed as active); inconclusive = small, poorly fitted or top-dose-only effect, or effect the other way, or a change in a side signal; inactive = no such curve, though single readings can be large or run the other way; the % refers to the signal ratio. Where the call is inconclusive, the potency comes from a doubtful curve fit. “Side channel” marks fits to a control or component signal instead of the main read-out. Starred links: 1 amine or outer side, 2 acyl side, 3 side chain; linkers in the order of their positions; H or OH if unused. Positions of bridges follow the written chain, without caps; N, C: chain ends. Non-standard residues stand in square brackets, D forms with d. Residues, ends and D or L forms follow the SMILES beside them. ξ: configuration not given here. hSer(Ph(2-I,4-NO2,6-CO)) = O=C([C@H](CCOc1c(I)cc([N+](=O)[O-])cc1C(=O)[*:3])N[*:1])[*:2]; ξD = NC(CC(=O)O)C(=O)O
% is scaled to controls: 0 for no effect and ±100 for the full control effect; potency is read from the fitted curve at half-maximal effect; tags tell the direction and shape of the fitted curve or compound fluorescence and quenching.

Each compound was assayed against Muscleblind-like protein 1 (Homo sapiens) (UniProt Q9NR56) (assay: qHTS Assay for Inhibitors of MBNL1-poly(CUG) RNA binding). Settings: TR-FRET MBNL1-His/biotin-(CUG)12 binding, 665/545 ratio; activity change, negative = inhibition: at 57.5 µM (top of the series).
UniProt Q9NR56, sequence (Q9NR56 whole entry, looked up): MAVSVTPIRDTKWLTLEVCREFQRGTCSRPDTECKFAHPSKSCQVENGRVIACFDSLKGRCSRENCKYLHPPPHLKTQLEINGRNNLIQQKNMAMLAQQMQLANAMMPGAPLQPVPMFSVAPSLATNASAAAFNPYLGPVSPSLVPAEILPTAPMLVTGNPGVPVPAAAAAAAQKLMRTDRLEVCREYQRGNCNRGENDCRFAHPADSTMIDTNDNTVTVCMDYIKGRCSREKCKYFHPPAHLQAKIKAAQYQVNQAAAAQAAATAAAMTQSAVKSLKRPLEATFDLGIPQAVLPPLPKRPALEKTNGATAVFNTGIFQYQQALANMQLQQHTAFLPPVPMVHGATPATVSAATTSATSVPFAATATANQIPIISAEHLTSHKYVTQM
Summary of the method: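 Ratiometric TR-FRET (665 over 545 nm, excitation 340 nm) tracks disruption of MBNL1-His/biotin-(CUG)12 complex after 60 min at room temperature, with compounds at 92 nM to 58 uM final.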
`O=C(NCc1ccco1)C1CCN(c2ccc(N3CCOCC3)nn2)CC1` was tested, and the Potency was inconclusive: 39.8 µM [quencher, side channel, single point]. `C[C@H](NC(=O)c1nc[nH]c1C(=O)N[C@@H](Cc1ccccc1)C(=O)OC(C)(C)C)c1ccccc1` was tested, and the “activity change, negative = inhibition” value was inactive: -3.06%. With `Cc1ccc(S(=O)(=O)NCCNc2ccc([N+](=O)[O-])cc2C(F)(F)F)cc1` the Potency was inconclusive: 0.112 µM [quencher, side channel, full curve]. For `C#CCOCCOCCOCCNc1nc(N2CCN(C(=O)[C@H](CCCCN)n3cc([C@@H](N)C(C)CC)nn3)CC2)nc(N2CCN(C(=O)[C@H](CCCCN)n3cc([C@@H](N)CO)nn3)CC2)n1` (stereo partly drawn), the Potency was inconclusive: 3.16 µM [inhibitor, full curve, poor fit]. For `COc1ccc2oc(=O)c(C(=O)NC3CCCCCC3)cc2c1`, the Potency was inconclusive: 3.98 µM [quencher, side channel, full curve, poor fit]. With `COc1cc2c(c(OC)c1OC)-c1ccc(NC(=O)c3ccc(F)cc3)c(=O)cc1[C@@H](NC(C)=O)CC2` the Potency was inconclusive: 15.8 µM [quencher, side channel, partial curve]. For `CCOc1ccc(CN2C(=O)CCC2(C)C(=O)NCc2cccnc2)cc1` (stereo not drawn), the Potency was inconclusive: 7.94 µM [quencher, side channel, full curve, poor fit]. `CN1CCN(c2ccc([N+](=O)[O-])cc2NC(=O)c2ccco2)CC1` was tested, and the Potency was inconclusive: 14.1 µM [quencher, side channel, partial curve]. With `Cc1cc(C)c2c(=O)c3c(oc2c1)C(=O)N(CCO)C3c1cccc(O)c1` (stereo not drawn) the Potency was inconclusive: 28.2 µM [quencher, side channel, partial curve]. `CC[C@H](C)[C@@H]1NC(=O)c2cc([N+](=O)[O-])cc(F)c2NCCCC[C@@H](C(N)=O)NC(=O)[C@H](CCCCN)NC1=O` was tested, and the Potency was inconclusive: 14.1 µM [quencher, partial curve, poor fit]. `N#C/C(=C/c1cccs1)c1ccccn1` was tested, and the Potency was inconclusive: 28.2 µM [quencher, single point]. `Nc1[nH]c(N=NC(=O)c2ccccc2)c2ccccc12` was tested, and the Potency was inconclusive: 35.5 µM [quencher, side channel, single point]. `O=C(NCc1ccc(F)cc1)C1CCN(S(=O)(=O)N2CCCC2)CC1` was tested, and the “activity change, negative = inhibition” value was inactive: -5.54%. `C/C(=N\NC(=S)NCCc1ccccc1)c1ccc(O)cc1O` was tested, and the Potency was inconclusive: 31.6 µM [quencher, side channel, single point]. With `COCCn1c(=O)c2c(nc3n2CCN3c2ccc(C)cc2)n(C)c1=O` the Potency was inconclusive: 35.5 µM [fluorescent, side channel, single point]. With `O=[N+]([O-])c1cccc(/C=C/c2ccccn2)c1` the Potency was inconclusive: 14.1 µM [quencher, side channel, partial curve]. With `O=C(O)c1ccc(N/N=C/c2ccc3c(c2)OCO3)cc1` the Potency was inconclusive: 15.8 µM [quencher, side channel, partial curve]. In the case of `CC12CCC(C(=Nc3ccc(N=C4C(=O)C5(C)CCC4C5(C)C)cc3)C1=O)C2(C)C`, the Potency is reported as inconclusive: 4.47 µM [quencher, side channel, full curve, poor fit]. `CCC(CC)NCCOC(=O)c1ccc([N+](=O)[O-])cc1` was tested, and the Potency was inconclusive: 14.1 µM [quencher, side channel, partial curve]. In the case of `O=C(CN1CCN(S(=O)(=O)c2ccc(Cl)cc2)CC1)Nc1ccc2c(c1)CCC2`, the “activity change, negative = inhibition” value is reported as inactive: -21.1%. For `CCCCN(CCCC)CCCNC(=O)C12CN(Cc3ccccc3)CC1C(c1cccc([N+](=O)[O-])c1)=NO2` (stereo not drawn), the Potency was inconclusive: 20 µM [quencher, side channel, single point]. For `Cc1nc(NC(=S)NC(=O)COc2ccc(Cl)cc2)ccc1Br`, the Potency was inconclusive: 0.112 µM [fluorescent, side channel, full curve]. With `COc1ccccc1N(CC(=O)NC1CCCC1)C(=O)c1oc(C(C)(C)C)cc1C` the “activity change, negative = inhibition” value was inactive: -3.8%. In the case of `COC(=O)CCCNS(=O)(=O)c1ccc2ccccc2c1`, the Potency is reported as inconclusive: 8.91 µM [quencher, side channel, single point]. `O=C(Nc1ccc2c(c1)OCCO2)C1CCCN(S(=O)(=O)c2cccc3nsnc23)C1` (stereo not drawn) was tested, and the Potency was inconclusive: 3.98 µM [quencher, side channel, full curve]. `C=CCn1c(SC2CCOC2=O)nc2sc(C)c(C)c2c1=O` (stereo not drawn) was tested, and the Potency was inconclusive: 1.12 µM [fluorescent, side channel, full curve, poor fit]. With `CCCn1c(N)c(C(=O)CSc2nc3ccccc3n2CCC#N)c(=O)n(C)c1=O` the “activity change, negative = inhibition” value was inactive: 8.53%. `O=C(/C=C/c1ccc(Cl)cc1Cl)NCCSCc1ccccc1` was tested, and the “activity change, negative = inhibition” value was inactive: 4.85%. `Cc1nn2c(Nc3ccc(F)cc3)c3c(nc2c1-c1ccccc1)CCC3` was tested, and the “activity change, negative = inhibition” value was inactive: -12.3%. For `CC1Cc2ccccc2N1C(=O)CSc1nnc2c(n1)[nH]c1ccc(F)cc12` (stereo not drawn), the “activity change, negative = inhibition” value was inactive: -3.88%. With `O=C(Nc1ncc2c(n1)-c1ccccc1CC2)c1ccc(F)cc1` the “activity change, negative = inhibition” value was inactive: -3.68%. `COc1ccccc1/C=C1\S/C(=N/NC(=O)c2cccc(Br)c2)NC1=O` was tested, and the “activity change, negative = inhibition” value was inactive: 1.07%. With `NS(=O)(=O)c1cccc(NC(=O)/C=C/c2cccs2)c1` the Potency was inconclusive: 12.6 µM [quencher, side channel, partial curve]. With `COc1ccc2nc3oc(C(=O)N4CCC(C(N)=O)CC4)cc3cc2c1` the Potency was inconclusive: 11.2 µM [quencher, side channel, partial curve]. With `O=C(NC1=C(NC2CCS(=O)(=O)C2)C(=O)c2ccccc2C1=O)c1ccccc1` (stereo not drawn) the Potency was inconclusive: 11.2 µM [quencher, side channel, partial curve]. With `COc1ccccc1NC(=O)/C(C#N)=C/c1cc([N+](=O)[O-])ccc1N1CCCC1` the Potency was inconclusive: 35.5 µM [fluorescent, side channel, partial curve]. For `Cc1cc(C(F)F)n2nc(C(=O)Nc3sc4c(c3C#N)CCC4)nc2n1`, the Potency was inconclusive: 12.6 µM [quencher, side channel, partial curve]. For `O=c1cc(-c2cc3ccccc3o2)c2cc(O)ccc2o1`, the Potency was inconclusive: 22.4 µM [quencher, side channel, partial curve, poor fit]. For `O=C(/C=C/c1ccc(Cl)cc1)NC(=S)Nc1ccc(CN2CCOCC2)cc1`, the Potency was inconclusive: 0.126 µM [fluorescent, side channel, full curve, poor fit]. In the case of `COc1cccc(CN(C)C(c2ccccc2)c2ccccc2)c1OC`, the “activity change, negative = inhibition” value is reported as inactive: -2.62%. `COc1cc(/C=C2\C(C)=C(C#N)c3nc(N)c(C#N)c(C)c32)ccc1OCC(=O)O` was tested, and the Potency was inconclusive: 7.94 µM [quencher, side channel, partial curve]. `Cc1onc(C(=O)NC(C)c2ccccc2)c1[N+](=O)[O-]` (stereo not drawn) was tested, and the Potency was inconclusive: 22.4 µM [quencher, partial curve]. For `CCC1(C)C(Nc2c(C)cccc2C)=NC(=S)N1c1ccc(NC(C)=O)cc1` (stereo not drawn), the Potency was inconclusive: 126 µM [inhibitor, single point]. In the case of `N#Cc1cc([N+](=O)[O-])ccc1NCC1CCCO1` (stereo not drawn), the Potency is reported as inconclusive: 12.6 µM [quencher, side channel, partial curve]. With `O=C(Nc1ccc(C(=O)O)cc1)/C(=C\c1ccc2c(c1)OCO2)NC(=O)c1ccc(Br)o1` the Potency was inconclusive: 22.4 µM [quencher, side channel, single point]. With `CCc1ccccc1NC(=O)NC1CC2CCC(C1)N2Cc1cccs1` (stereo not drawn) the “activity change, negative = inhibition” value was inactive: 0.49%. For `C[C@@H]1NC(=O)[C@H](CC(N)=O)NC(=O)c2cc([N+](=O)[O-])cc(I)c2OCC[C@@H](C(=O)NC(CC(=O)O)C(N)=O)NC1=O` (stereo partly drawn) (NA[hSer(Ph(2-I,4-NO2,6-CO))][ξD]-NH2; lactam N-3), the Potency was inconclusive: 39.8 µM [quencher, side channel, single point]. With `CC(NC(=O)/C(C#N)=C1\N=C(NC(=O)c2cccs2)c2ccccc21)c1ccccc1` (stereo not drawn) the Potency was inconclusive: 3.55 µM [quencher, side channel, full curve]. For `O=C(C1CCCN1S(=O)(=O)c1cccc2nsnc12)N1CCCCCC1` (stereo not drawn), the Potency was inconclusive: 14.1 µM [quencher, partial curve]. `Cc1nn(CC(=O)Nc2ccncc2)c(C)c1[N+](=O)[O-]` was tested, and the “activity change, negative = inhibition” value was inactive: 22.1%. For `CCNc1nc(NCC)nc(N(C#N)C(C)C)n1`, the “activity change, negative = inhibition” value was inactive: -9.54%. In the case of `CCc1nnc(NC(=O)CSc2sc3c(O)cc(=O)[nH]c3c2C#N)s1`, the Potency is reported as inconclusive: 17.8 µM [quencher, side channel, partial curve]. In the case of `O=C(Nc1nnc(-c2ccccc2Cl)o1)c1ccc(S(=O)(=O)N2CCCCCC2)cc1`, the “activity change, negative = inhibition” value is reported as inactive: -7.26%. In the case of `CCN(C(=O)CSc1nc2ccc([N+](=O)[O-])cc2s1)C1CCS(=O)(=O)C1` (stereo not drawn), the Potency is reported as inconclusive: 12.6 µM [quencher, side channel, partial curve]. In the case of `O=C(CSc1nnc(CCCN2C(=O)c3cccc4cccc(c34)C2=O)n1-c1ccccc1)NCCCN1CCOCC1`, the Potency is reported as inconclusive: 15.8 µM [quencher, side channel, partial curve]. For `CC(/C=C\C=C\c1ccccc1)=N\NC(=O)c1cncc(Br)c1`, the “activity change, negative = inhibition” value was inactive: 18%. With `Nc1nnnn1/N=C\c1ccc(Cl)c([N+](=O)[O-])c1` the Potency was inconclusive: 10 µM [quencher, side channel, partial curve]. For `O=C(COc1cccnc1[N+](=O)[O-])Nc1ccc2c(c1)OC(F)(F)O2`, the Potency was inconclusive: 11.2 µM [quencher, side channel, partial curve].
